Data from the RNAGym collection of RNA variant scans (doi:10.1093/nar/gkz1192).
Read counts are not given, so values of variants with three or more changes are uncertain.

B1: CPEB3 Ribozyme (parent)
chain: UAACAGGGGGCCACAGCAGAAGCGUUCACGUCGCAGCCCCUGUCAGAUUCUGGUGAAUCUGCGAAUUCUGCUGUAUAUCUC

Variants of: B1
Assay: self-cleavage, relative activity (ratio to wild type); higher = more cleavage; in vitro, sequencing
Procedure, shortened: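 Barcoded CPEB3 ribozyme mutants, produced by rounds of error-prone PCR, self-cleaved while being transcribed with T7 RNA polymerase for 5 hours at 37°C and during a subsequent 15 min DNase I step before EDTA was added. Sequencing of template-switched cDNA on Illumina gave cleaved and total reads, and DNA sequencing assigned barcodes to variants. Each variant's relative activity is its cleaved/total read fraction divided by the unmutated ribozyme's fraction, averaged across three batches. A variant needed a minimum of 5 reads.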

Variant | self-cleavage
UAACAGGGGGCCGCAGCAGAAGCGCUCACGUCGCUGCCCCUGUCAGAUUCUGGUGGAUCUGCAAAUUCUGCUGUAUAUCUC | 0.1
UAACAGGGGGCCGCAGCAGAAGCGCUCACGUCGCAGCCCCUGUCAGGUUCUGGUGAACCUGCGAAUUCUGCAGUAUAUCUC | 0.17
UAACAGGGGGCCGCAGCAGAAGCGCUCACGUCGCAGCCCCUGUCAGAUUCUGGUGGAUCUGCGAAUUCCGCUGUAUAUCUC | 0.08
UAACAGGGGGCCGCAGCAGAAGCGCUCAUGUAGCAGCCCCCGUCAGAUUCUGGUGAAUCUGCGAAUUCUGCUGUAUUUCUC | 0.24
UAACAGGGGGCCGCAGCAGAAGCGCUCACGUCGCAGUCCCAGUCAGAUUCUGGUGAAUCUGCGAAUUCUCCUGUAUGCCUC | 0.03
UAACAGGGGGCCGCAGCAGAAGCGCUCACGUCGCAGCCCCUGUAUGAUUCUGGUGAAACUGCGAAUUCUGCUGUAUAUCUC | 0.17
UAACAGGGGGCCGCAGCAGAAGCGCUCACGUCGCAGCCCCUGUCAGAUUCUGGUGAAUCUACGAAUUCUGCUGUAUACCUC | 0.08
UAACAGGGGGCCGCAGCAGAAGCGCACACGUCGCAGCCCCUGCCGGAUUCUGGUGAAUCUGCGAACUCUGCUGUAUAUCUC | 0.37
UAACAGGGGGCCGCAGCAGAAGCGCCCACGUCGCAGCCCCUGACAGAUUCUGGUGGAUCUGCGAAUUCUGCUGUAUAUUUC | 0.32
UAACAGGGGGCCGCAGCAGAAGCGCUCACGACGUAGCCCCUGUCAGAUUCUGGUGAAUCUGCGGAUUCUGCUGUAUAUCUC | 0.05
UAACAGGGGGCCGCAGCAGAAGCGCUCACGACGCAGCCCCUGUCAGAUGCUGGUGAAUCUGCGAUUUCUGCUGUGUAUCUC | 0
UAACAGGGGGCCGCAGCAGAAGCGCUCACGCCGCAGCCCCUGUCAGAUUCUGGUGAAUCUGCGAAUUCUGCUGUAUAUCUC | 0.26
UAACAGGGGGCCGCAGCAGAAGCGCUCACGUCGCAGCCCCUGUCAGAUUCAGGUGGAUCUGCGAAUCCUGCUGUAUAUCUC | 0.04
UAACAGGGGGCCGCAGCAGAAGCGCUCACGUCGCAGCCCCUGUCAGAUUCUGGCGAAUCUGAGAAUUCUGCUGUAUAUCUC | 0.27
UAACAGGGGGCCGCAGCAGAAGCGCUCACGUCGCAGCCCCUGUCAGAUUCUGGUGAAUCCGCGAGUUCUGCUGUAUAUCUC | 0.18
UAACAGGGGGCCGCAGCAGAAGCGCUCACGUCGCAGCCCCUGUCAGAUUCUGGUGAAUCUGCGAAUUCUGCUGAAUAUCUC | 0.47
UAACAGGGGGCCGCAGCAGAAGCGGUCACGUCGCAGCCCCUGUCAGAUUCUGGCGAAUCUGCGAAUCCUGUUGUAUAUCUC | 0.05
UAACAGGGGGCCGCAGCAGAAGCGUACACGUCGCAGCCCCUGUCAGAUUCUGGUGUAUCUGCGAAUUCUGCUGUAUAUCUC | 0.46
UAACAGGGGGCCGCAGCAGAAGCGUACACUUCGCAGCCCCUGUCAGAUUCUGGUGAAUCUGCGAAUUCUGCUGUAUAUCUC | 0.12
UAACAGGGGGCCGCAGCAGAAGCGUACACGUCGCAGCCCCUGUCAGAUUCUGGAGAAUCUGCGAGUUCUGAUGUAUAUCUC | 0.22
UAACAGGGGGCCGCAGCAGAAGCGUCCACGUCGCAGCCCCUGUCAGAUUCUGGUGUAUCUGCGAAUUCAGCUGUAUAUCUC | 0.06
UAACAGGGGGCCGCAGCAGAAGCGUCCACGUCGCAGCCCCUGUCAGAUUCUGGUGAGUCUGCGAAUUCUGCUGUAUAUCUC | 0.45
UAACAGGGGGCCGCAGCAGAAGCGUCCACGUCGCAGCCCCUGUCAGAUUCUGGUGAGUCCGCGAGUUCUGCUGUAUAUCUC | 0.08

Variant | self-cleavage
UAACAGGGGGCCGCAGCAGAAGCGUCCACGUCGCAGCCCAUGUCAGAUUCGGGUGAAUCUGCGAAUUCUGCUGUAUAUCUC | 0.23
UAACAGGGGGCCGCAGCAGAAGCGUCCACGUCGCAGCCCUUGUCAGAUUCUGGUGAAUCUGCGAAUUGUGCUGUAUAUCUC | 0.13
UAACAGGGGGCCGCAGCAGAAGCGUCCACGUCGCAGCCCCUGUCAGAUUCUGGUGAAUCUGCCAAUUCUGCUGUAUAUCUC | 0.41
UAACAGGGGGCCGCAGCAGAAGCGUCCACGUCGCAGCCCCUGGCAGAUUUUGGUGAAUCUGCGAAUUCUGCCGUAUAUCUC | 0.08
UAACAGGGGGCCGCAGCAGAAGCGUCCACGUCGCAGCCCCUGUCAGAUUCAGGUGAAUCUGCGAAUUCUGCUGUAUAUCUC | 0.26
UAACAGGGGGCCGCAGCAGAAGCGUCCACGUCGCAGCCCCUGUCAGAUUCUGGUGAAUCAGCGAAUUCUGCUGUAUAUCUC | 0.37
UAACAGGGGGCCGCAGCAGAAGCGUGCACGUCGCAGCCCCUGUCGGAUUCUGGUGAAUCUGCGAAUUCUGCCGUAUAUCUC | 0.08
UAACAGGGGGCCGCAGCAGAAGCGUUCACGACGCAGCCCCUGUCGGAUACUGGUGAAUCUGCGAACUCUGCUGUAUAUCUC | 0.15
UAACAGGGGGCCGCAGCAGAAGCGUUCACGACGCAGCCCCCGUCAGAUUCUGGUGAAUCUGCGGAUUCUGCUGUAUAUCUC | 0.37
UAACAGGGGGCCGCAGCAGAAGCGUUCACGACGCAGCCCCUGUCAGAUUCUGGUGAAACUGCGAAUUCUGCUGUAUAUCUC | 0.22
UAACAGGGGGCCGCAGCAGAAGCGUUCACGCCGCGGCCCCUGUCAGAUUCUGGUGUAUCUGCGAAUUCUGUUGUAUAUCUC | 0
UAACAGGGGGCCGCAGCAGAAGCGUUCACGCCGCAGCCCCUGUCAGGUUCUGGUGAAUCUGCGAAUUCUGCUGUAUAUCUC | 0.29
UAACAGGGGGCCGCAGCAGAAGCGUUCACGCCGCAGCCCCUGUCAGAUUCUGGUGUAUCUGCGAAUUCCGCUGUAUAUCUC | 0.13
UAACAGGGGGCCGCAGCAGAAGCGUUCACGCCGCAGCCCCUGUCAGAUUCUGGUGAAUCUGCGGAUUCAGCUGUAUAUCUC | 0.11
UAACAGGGGGCCGCAGCAGAAGCGUUCACGCCGCAGCCCACGUCAGAUUCUGGUGAAUCCGCGAAUUCUGCUGUGUACCUC | 0.04
UAACAGGGGGCCGCAGCAGAAGCGUUCACGCCGCAGCCCCUGCCAGAUUCCGGUGAAUCUGCGAAUUCUGCUGUAUUUCUC | 0.1
UAACAGGGGGCCGCAGCAGAAGCGUUCACGCCGCAGCCCCUGUCAGAUUCUGGUGAAUCUGCGAAUUCUGCAGUAUAUCUC | 0.25
UAACAGGGGGCCGCAGCAGAAGCGUUCACGGCGCAGCCCCCGUCAGAUUCUGGUGAAUCUGCGAAUUCAGCUGAAUACCUC | 0.14
UAACAGGGGGCCGCAGCAGAAGCGUUCACGUCGCAGCCCCAGUCAGGUUCUGGUGAGUCUGCGGAUUCAGCUGUGUAUCUC | 0.09
UAACAGGGGGCCGCAGCAGAAGCGUUCACGUCGCAGCCCCAGUCAGAUUCUGGUGAGUCUGCGAAUUCUGCUGUAUACCUC | 0.3
UAACAGGGGGCCGCAGCAGAAGCGUUCACGUCGCAGCCCCAGUCAGAUUCUGGUGAAUCUGCGAGUUCUGCUGUAUAUCUC | 0.14
UAACAGGGGGCCGCAGCAGAAGCGUUCACGUCGCAGCCCCAGUCAAAUUCUGGUGAAUCUGCGAAUACUGCUGUAUAUCUC | 0.17
UAACAGGGGGCCGCAGCAGAAGCGUUCACGUCGCAGCCCCAGUCAGAUCCUGGUGAAUCUGCGAAUUCUGCUGUAUAUCUC | 0.19

Variant | self-cleavage
UAACAGGGGGCCGCAGCAGAAGCGUUCACGUCGCAGCCCCAGUCAGAUUCUGGUGAAUCUGCGAAUUCUGCUGUAUAUCCC | 0.55
UAACAGGGGGCCGCAGCAGAAGCGUUCACGUCGCAGCCCCCGUCAGAUUCUGGUGAAUCUGCGAAUUUUGCUGUAUAUCUC | 0.55
UAACAGGGGGCCGCAGCAGAAGCGUUCACGUCGCAGCCCCCGUCAGACUCUGGUGUAUCUGCGAAUUCUGCAGUAUAUCUC | 0.1
UAACAGGGGGCCGCAGCAGAAGCGUUCACGUCGCAGCCCCCGUCAGAUACUGGUGAGUCUGCGAAUUCUGCUAUAUACCUC | 0.67
UAACAGGGGGCCGCAGCAGAAGCGUUCACGUCGCAGCCCCCGUCAGAUUCUGGCGUAUCUGCGUAUUCUGCUGUACAUCUC | 0.1
UAACAGGGGGCCGCAGCAGAAGCGUUCACGUCGCAGCCCCCGUCAGAUUCUGGUGAAUCUGCGAAUUCUGCUGUAUACCUC | 0.94
UAACAGGGGGCCGCAGCAGAAGCGUUCACGUCGCAGCCCCGGUCAGAUUCUAGUGAAUCUGCGAAUUCUGCUGUAUAUCCC | 0.2
UAACAGGGGGCCGCAGCAGAAGCGUUCACGUCGCAGCCCCUGACAGAUUCUGGUGAGUCUGCGAAUUCUGCUGUAUAUCUC | 1.01
UAACAGGGGGCCGCAGCAGAAGCGUUCACGUCGCAGCCCCUGACAGAUUCCGGUGAAUCUGCGAAUUCUGCUGUAUAUCUC | 1.07
UAACAGGGGGCCGCAGCAGAAGCGUUCACGUCGCAGCCCCUGACAGAUUCUGGUGAAUCUGCGAAUUCUGCCGUAUAUCUC | 0.88
UAACAGGGGGCCGCAGCAGAAGCGUUCACGUCGCAGCCCCUGCCAGAUUCUGGUGUAUCUGCGAAUUCUGCUGUAUAUCCC | 0.29
UAACAGGGGGCCGCAGCAGAAGCGUUCACGUCGCAGCCCCUGUCAGACUCUGGUUUAUCUGCGAAUUCUGCUGUAUAUCUC | 0.15
UAACAGGGGGCCGCAGCAGAAGCGUUCACGUCGCAGCCCCUGUCAGACUCUGGUGAAUCAGCGGAUUCUGCUGUAUAUCUC | 0.15
UAACAGGGGGCCGCAGCAGAAGCGUUCACGUCGCAGCCCCUGUCAGACUCUGGUGAAUCAGAGAAUUCUGCGGUAUAUCUC | 0.16
UAACAGGGGGCCGCAGCAGAAGCGUUCACGUCGCAGCCCCUGUCAGACUCUGGUGAAUCUGCGAAAUCUGCUGUAUAUCUC | 0.34
UAACAGGGGGCCGCAGCAGAAGCGUUCACGUCGCAGCCCCUGUCAGACUCUGGUGAAUCUGCGAAUUCUGCUGUAUAUCAC | 0.35
UAACAGGGGGCCGCAGCAGAAGCGUUCACGUCGCAGCCCCUGUCAGACUCUGGUGAAUCUGCGAAUUCUGCUGUAUAUCCC | 0.55
UAACAGGGGGCCGCAGCAGAAGCGUUCACGUCGCAGCCCCUGUCAGAUACUGGUGGAACUGCGAAUCCUGCUGUAUAUCUC | 0.09
UAACAGGGGGCCGCAGCAGAAGCGUUCACGUCGCAGCCCCUGUCAGAUCCUGGUGUAUCUGCGAAUUCAGCUGUAUAUCUC | 0.05
UAACAGGGGGCCGCAGCAGAAGCGUUCACGUCGCAGCCCCUGUCAGAUCCUGGUGAAUCUGCGAAUCCUGCUGUAUAUCUC | 0.14
UAACAGGGGGCCGCAGCAGAAGCGUUCACGUCGCAGCCCCUGUCAGAUCCUGGUGAAUCUGCGAAUUCUGCCGUAUAUCUC | 0.13
UAACAGGGGGCCGCAGCAGAAGCGUUCACGUCGCAGCCCCUGUCAGAUCCUGGUGAAUCUGCGAAUUCUGCUGUAUAUCAC | 0.42
